# The other results are listed elsewhere or left out. The data describe in vitro nicking of single-stranded DNA by Rep domains (3 µM enzyme, 1 h, 37 °C); shown is the middle of each 90-letter strand. Numbers give uncut DNA relative to the enzyme-free pool, as log2; strong cutting gives strongly negative numbers. There is no active / inactive call. The scaling is to total reads; values above 0 arise when much of the pool is cut.
# What was measured:
# Experiment in all cases: uncleaved DNA left, log2 of reads against the no-enzyme library (log2 ratio); higher = less cleavage (more negative = more Rep cleavage of the k-mer); sequences stand for … in CTCGTCCG…ACCGGAGA
# [1] = system: T1, Rep nickase domain of Muscovy duck circovirus
# T1 sequence (residues 1-111, tag not shown): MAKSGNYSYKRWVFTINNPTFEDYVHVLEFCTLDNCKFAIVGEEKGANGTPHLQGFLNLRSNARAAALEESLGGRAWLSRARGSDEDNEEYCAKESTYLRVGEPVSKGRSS
# Experimental: (§1)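 A pool of 90-nt single-stranded DNAs with seven random bases just before the constant AC of the nick site (name = the seven bases) was cut by 3 µM recombinant His6-SUMO-tagged Rep nickase domain (300 nM DNA, 50 mM HEPES pH 8.0, 50 mM NaCl, 1 mM MnCl2, 1 h, 37 °C, three replicates). Uncut DNA was amplified and sequenced.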
# [2] = system: T2, Rep nickase domain of banana bunchy top virus
# T2 sequence (residues 1-94, tag not shown): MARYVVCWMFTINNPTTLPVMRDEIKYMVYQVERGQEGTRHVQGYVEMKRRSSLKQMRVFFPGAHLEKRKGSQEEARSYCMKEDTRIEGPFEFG
# Experimental: as §1
# [3] = system: T3, Rep nickase domain of cabbage leaf curl virus
# T3 sequence (residues 1-116, tag not shown): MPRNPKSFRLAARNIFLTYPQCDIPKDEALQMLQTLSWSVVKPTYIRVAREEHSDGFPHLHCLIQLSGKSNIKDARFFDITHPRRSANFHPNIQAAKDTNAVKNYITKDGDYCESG
# Experimental: as §1
# [4] = system: T4, Rep nickase domain of chickpea chlorotic dwarf virus
# T4 sequence (residues 1-124, tag not shown): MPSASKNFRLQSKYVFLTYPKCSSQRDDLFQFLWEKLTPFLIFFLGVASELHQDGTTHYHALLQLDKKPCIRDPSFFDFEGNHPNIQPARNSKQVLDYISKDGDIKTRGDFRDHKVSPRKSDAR
# Experimental: as §1
# [5] = system: T5, Rep nickase domain of faba bean necrotic yellows virus
# T5 sequence (residues 1-98, tag not shown): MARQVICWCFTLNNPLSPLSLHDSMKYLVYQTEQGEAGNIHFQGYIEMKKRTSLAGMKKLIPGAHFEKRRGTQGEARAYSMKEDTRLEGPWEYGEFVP
# Experimental: as §1
# [6] = system: T6, Rep nickase domain of maize striate mosaic virus
# T6 sequence (residues 1-117, tag not shown): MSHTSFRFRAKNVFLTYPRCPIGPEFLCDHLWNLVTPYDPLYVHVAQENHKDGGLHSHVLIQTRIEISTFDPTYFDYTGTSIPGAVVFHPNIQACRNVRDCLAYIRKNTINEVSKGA
# Experimental: as §1
# [7] = system: T7, Rep nickase domain of porcine circovirus 2
# T7 sequence (residues 2-116, tag not shown): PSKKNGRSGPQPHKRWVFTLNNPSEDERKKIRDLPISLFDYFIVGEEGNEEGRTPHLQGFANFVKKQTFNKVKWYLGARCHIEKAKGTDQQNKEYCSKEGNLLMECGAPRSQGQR
# Experimental: as §1
# [8] = system: T8, Rep nickase domain of tomato golden mosaic virus
# T8 sequence (residues 1-124, tag not shown): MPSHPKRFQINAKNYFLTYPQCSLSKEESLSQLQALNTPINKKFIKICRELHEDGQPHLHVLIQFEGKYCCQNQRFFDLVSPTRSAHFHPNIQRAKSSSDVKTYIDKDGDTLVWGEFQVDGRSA
# Experimental: as §1
# [9] = system: T9, Rep nickase domain of tomato yellow leaf curl virus
# T9 sequence (residues 1-136, tag not shown): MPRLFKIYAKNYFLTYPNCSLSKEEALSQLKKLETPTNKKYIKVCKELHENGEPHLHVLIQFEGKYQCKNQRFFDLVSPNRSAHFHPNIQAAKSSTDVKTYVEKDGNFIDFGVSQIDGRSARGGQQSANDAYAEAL
# Experimental: as §1
# [10] = system: T10, Rep nickase domain of wheat dwarf virus
# T10 sequence (residues 1-137, tag not shown): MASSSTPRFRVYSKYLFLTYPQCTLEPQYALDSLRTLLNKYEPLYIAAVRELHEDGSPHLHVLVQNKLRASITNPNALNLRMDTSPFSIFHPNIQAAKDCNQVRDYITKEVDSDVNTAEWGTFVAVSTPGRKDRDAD
# Experimental: as §1
Sequence,uncleaved DNA left (log2) [1],uncleaved DNA left (log2) [2],uncleaved DNA left (log2) [3],uncleaved DNA left (log2) [4],uncleaved DNA left (log2) [5],uncleaved DNA left (log2) [6],uncleaved DNA left (log2) [7],uncleaved DNA left (log2) [8],uncleaved DNA left (log2) [9],uncleaved DNA left (log2) [10]
CCGTCGT,0.00901,-0.222,-0.58,-0.735,-0.107,-0.776,-0.492,-0.0851,0.0106,-0.168
CACCTGT,-0.00891,-0.0127,-0.148,-0.907,0.00936,-0.448,-0.387,-0.157,0.0275,0.0188
TCCATGA,0.0382,-0.0421,-0.0882,-0.066,-0.00343,-0.88,0.0494,0.13,0.0248,-0.0462
ACTTTGC,0.0101,-0.00575,-0.505,-0.0719,0.0702,-0.799,0.139,-0.0829,0.0774,0.0572
AGTGTTT,0.134,-0.093,0.0913,-0.959,-0.0397,0.424,-3.17,0.0927,0.0623,-0.00459
ACTGCGT,0.036,-0.0903,-0.824,-0.0906,-0.0414,-0.696,0.0967,-0.158,-0.117,-0.192
CTCCGAA,0.0198,0.0889,0.306,0.406,0.103,-0.0122,0.194,0.0606,0.163,0.203
GACAGCA,0.0239,0.104,0.184,-0.0185,0.00384,0.00112,-0.0559,0.0955,0.0819,0.114
TCGGCTA,0.0876,-0.0186,0.0493,-0.103,-0.0537,0.468,-0.0565,-0.121,-0.194,0.0184
TAAAACG,0.0529,-0.00423,-0.993,-1.75,0.0168,-1.24,0.155,0.0285,0.0277,0.0267
CTCAGTG,0.051,0.0507,-0.674,-0.639,0.0216,-1.33,0.225,-0.0478,0.202,-0.0239
TATCTAC,-0.0228,-0.0559,-0.0105,-1.58,-0.0727,-0.12,-0.185,-0.0708,0.0362,-0.0367
CTAATGT,0.0704,-0.12,0.127,-0.498,-0.00575,-0.828,-0.177,-0.0546,-0.0917,-0.102
CAAACGG,-0.0943,0.0671,0.458,1.39,-0.0195,1.34,0.107,0.143,-0.0663,0.153
GTGCATT,0.0169,-0.0789,0.597,1.49,-0.146,2.06,0.135,-0.0791,0.0721,0.17
GGTCGAA,0.0828,0.13,0.565,1.28,0.115,1.69,0.176,0.112,0.157,0.133
TTGCGCC,-0.00908,-0.184,-0.695,0.156,0.0744,-0.801,0.0267,-0.237,-0.103,-0.269
TCACTAA,0.0453,-0.0773,0.0221,-0.274,0.0739,-0.372,0.0506,0.0698,-0.0428,-0.0422
ATATTAG,0.0424,-0.0131,-0.732,-0.207,0.0911,-1.16,0.139,0.0792,0.0391,-0.00241
AGAAAGA,0.0691,0.0683,0.0829,0.213,0.0376,-0.747,0.124,0.08,0.0814,0.0247
AGGTAAA,-0.0499,0.0206,0.152,0.437,-0.00363,0.306,-0.00117,0.0263,0.012,-0.0394
GTCGGAC,0.0812,0.222,0.913,2,0.0288,2.29,0.339,0.267,0.18,0.311
GGGGTAT,0.11,0.15,0.975,2.1,0.16,2.39,0.282,0.108,0.135,0.205
TAGCGCA,0.0329,-0.00237,-0.222,-0.15,-0.0526,-0.211,-0.136,0.00903,-0.181,-8.2e-07
AGCGGAG,0.00553,0.217,0.0679,0.458,0.105,0.417,0.199,0.278,0.0767,0.0606
GAAGCGC,0.181,0.158,-0.568,-0.205,0.138,-0.67,0.181,0.0641,0.0932,-0.0817
GTCCGAC,0.0798,0.0745,0.302,0.829,-0.00049,1.03,0.0853,0.012,0.0338,0.0631
GGATACT,-1.25,-0.0236,0.448,0.85,0.00172,1.63,-2.54,0.0127,0.00434,0.102
CGAGTAT,0.322,0.14,0.325,0.197,0.125,0.677,-0.00279,0.284,0.232,0.213
CACACTT,-0.0712,-1.97,-1.32,-2.89,-0.023,-1.04,-2.94,-0.213,-0.0878,-0.281

# From the supplement of paper PMC7826260
